Laboratory results from paper PMC8989888, “Development of optimized drug-like small molecule inhibitors of the SARS-CoV-2 3CL protease for treatment of COVID-19” (Nature Communications, 2022).

Molecular target: TMPRSS2 (Homo sapiens, UniProt O15393)
Sequence (O15393 106-492): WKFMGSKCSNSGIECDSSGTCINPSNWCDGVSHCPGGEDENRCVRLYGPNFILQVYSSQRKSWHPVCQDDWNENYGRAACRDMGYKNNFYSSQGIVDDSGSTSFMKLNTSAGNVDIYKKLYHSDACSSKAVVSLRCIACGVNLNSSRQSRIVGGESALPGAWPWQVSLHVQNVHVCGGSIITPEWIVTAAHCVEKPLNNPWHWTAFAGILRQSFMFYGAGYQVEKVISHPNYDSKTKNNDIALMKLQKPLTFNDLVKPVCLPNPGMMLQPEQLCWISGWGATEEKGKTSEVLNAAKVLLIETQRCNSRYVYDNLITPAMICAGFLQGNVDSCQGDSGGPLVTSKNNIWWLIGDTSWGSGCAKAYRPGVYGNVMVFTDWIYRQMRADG

Structure (SMILES) | inhibition of TMPRSS2 (in words)
CC(C)C[C@H](NC(=O)OCc1ccccc1Cl)C(=O)N[C@@H](C[C@@H]1CCNC1=O)C(O)S(=O)(=O)O (some centres unmarked) [EB54] | no inhibition of TMPRSS2
CC(C)C[C@H](NC(=O)OCc1cccc(C(F)(F)F)c1)C(=O)N[C@@H](C[C@@H]1CCNC1=O)C(O)S(=O)(=O)O (some centres unmarked) [NK01-63] | no inhibition of TMPRSS2
